Publication PMC4336329 (PLoS ONE, 2015)
Among all 310,000 compounds or so, about 14,000 (4.5%) showed an effect of 50% or more. Effects have a minus sign here. This is one part of the list.

These molecules were tested against human ether-à-go-go-related gene (hERG) potassium channel (human, UniProt Q12809) (assay: primary screen, population patch clamp on CHO cells stably expressing hERG).
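Also: peak tail current of the secondary pulse compared with the same well before compound.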

Chain of human ether-à-go-go-related gene (hERG) potassium channel (Q12809 whole entry, looked up): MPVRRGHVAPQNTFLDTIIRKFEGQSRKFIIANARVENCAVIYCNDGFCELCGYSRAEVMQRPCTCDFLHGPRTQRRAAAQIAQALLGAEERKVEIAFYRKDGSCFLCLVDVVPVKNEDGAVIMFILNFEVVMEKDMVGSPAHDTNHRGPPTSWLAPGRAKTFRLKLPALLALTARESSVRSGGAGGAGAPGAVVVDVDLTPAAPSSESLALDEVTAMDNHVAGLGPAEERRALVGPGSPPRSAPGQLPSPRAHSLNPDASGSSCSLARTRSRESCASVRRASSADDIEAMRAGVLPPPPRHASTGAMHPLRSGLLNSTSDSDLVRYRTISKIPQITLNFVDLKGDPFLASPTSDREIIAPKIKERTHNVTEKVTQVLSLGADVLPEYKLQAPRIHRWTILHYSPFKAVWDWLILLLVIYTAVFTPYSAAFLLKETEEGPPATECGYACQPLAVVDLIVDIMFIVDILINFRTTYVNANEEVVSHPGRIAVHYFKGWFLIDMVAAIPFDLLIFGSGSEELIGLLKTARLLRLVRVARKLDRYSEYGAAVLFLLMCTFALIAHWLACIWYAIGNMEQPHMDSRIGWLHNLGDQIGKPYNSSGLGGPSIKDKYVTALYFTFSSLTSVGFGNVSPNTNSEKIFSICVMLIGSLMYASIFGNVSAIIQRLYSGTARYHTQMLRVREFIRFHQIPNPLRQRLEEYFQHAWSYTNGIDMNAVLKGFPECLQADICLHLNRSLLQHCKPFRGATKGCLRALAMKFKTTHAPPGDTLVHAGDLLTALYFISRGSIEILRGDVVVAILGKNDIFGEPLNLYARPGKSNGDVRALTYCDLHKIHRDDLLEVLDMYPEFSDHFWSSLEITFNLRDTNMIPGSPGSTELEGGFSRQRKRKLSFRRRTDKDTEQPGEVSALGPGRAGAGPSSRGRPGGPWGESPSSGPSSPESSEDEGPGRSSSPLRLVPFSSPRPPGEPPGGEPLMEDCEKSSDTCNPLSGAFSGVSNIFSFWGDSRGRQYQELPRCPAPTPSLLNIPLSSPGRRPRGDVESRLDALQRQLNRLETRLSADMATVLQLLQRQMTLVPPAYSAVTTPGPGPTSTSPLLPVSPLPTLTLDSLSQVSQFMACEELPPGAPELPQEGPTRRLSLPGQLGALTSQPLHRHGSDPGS

| Compound | hERG current change (%, negative = inhibition) at 10uM [%] |
| --- | --- |
| Cc1cc(SCCC(=O)O)nc2c(C)cccc12 | 9.51 |
| CCC(CC)C(=O)Nc1cccc(C(=O)Nc2ccc(S(N)(=O)=O)cc2)c1 | 10.8 |
| O=c1c2ccccc2ccc2ccc(P(=O)(O)O)cc12 | -47.2 |
| COc1cc(C(=O)Oc2cccc(Nc3ncnc4ccccc34)c2)cc(OC)c1OC | 9.05 |
| C/C(=N/NC(=O)c1ccco1)c1ccc(NC(=O)c2ccc(F)cc2)cc1 | 14.5 |
| Cc1cc(S(=O)(=O)NCc2ccccc2)ccc1OCC(=O)NCc1cccnc1 | -23.4 |
| CCOc1cc(/C=C2\NC(=O)NC2=O)ccc1OC(C)C(=O)O (centres unmarked) | 18.4 |
| CC(=O)Oc1c2occc2cc2ccc(=O)oc12 | 4.96 |
| O=c1[nH]cc(S(=O)(=O)N2CCOCC2)c(=O)[nH]1 | -7.17 |
| Cc1ccc(CNC(=O)CCS(=O)(=O)c2ccc(Br)s2)cc1 | 11.6 |
| CC1(c2ccc3noc(-c4ccc(Cl)cc4)c3c2)OCCO1 | 6.61 |
| O=C(COC(=O)C1CC(=O)N(c2ccccc2)C1)c1ccccc1 (centres unmarked) | -3.5 |
| Clc1ccc(C2=NCCn3nc4ccccc4c32)cc1 | -7.91 |
| COc1cc(CNCc2ccccc2)cc(Cl)c1OC.Cl | -4.32 |
| CCCNC(=O)NS(=O)(=O)c1cnccc1Sc1ccc(Cl)c(Cl)c1 | 0.164 |
| CCOC(=O)N1C(=O)[C@@](c2ccc(Cl)cc2)(C(C)C)N1C(=O)OCC | 18.8 |
| CCOCCSc1nnc2nc(C)cc(C)n12 | 3.34 |
| Cc1ccc(C2C(=O)NC(=O)NC2=O)cc1 | 23.5 |
| NS(=O)(=O)c1cccc(NS(=O)(=O)c2ccc(/C=C/C(=O)OCC(=O)c3ccccc3)cc2)c1 | 38.2 |

| Compound | hERG current change (%, negative = inhibition) at 10uM [%] |
| --- | --- |
| Cc1cc(C)nc(Nc2nc3ccccc3s2)n1 | 15.2 |
| CCN(CC)S(=O)(=O)c1ccc2c(c1)N(CC(=O)NCc1ccco1)C(=O)CO2 | 7.23 |
| COc1cc2c(cc1OC)C(SC)=NC1(CCCC1)C2 | -0.0979 |
| COc1cccc(O)c1CN1CCC(C(=O)Nc2ccc(-c3cccc(C)c3)cc2)CC1 | -11.2 |
| CCOC(=O)C1=C(C(F)(F)F)Nc2ncnn2C1c1ccc(OC)cc1OC (centres unmarked) | 31.6 |
| O=C(Cn1c(=O)cnc2ccccc21)NNC(=O)c1ccc(Cl)cc1 | 13.4 |
| COc1cccc(NC(=O)NCc2ccccc2Cl)c1 | 13 |
| CC(C)CCNC(=O)C(=O)Nc1cc2c3c(c1)CCC(=O)N3CCC2 | -6 |
| O=C(COC(=O)/C=C/c1ccccc1)Nc1ccc2c(c1)OCCO2 | -3.37 |
| COC(=O)CN1C(=O)C(O)(CC(=O)c2ccc(Cl)cc2)c2ccccc21 (centres unmarked) | -4.34 |
| O=c1c2nncn2c2cc(C(F)(F)F)ccc2n1CCNc1ncc(C(F)(F)F)cc1Cl | 9.55 |
| O=C(Nc1ccc(Br)cn1)c1ccc(COc2c(F)c(F)cc(F)c2F)o1 | 7.5 |
| C[C@]12C=CC(=O)C=C1CC[C@@H]1C2C(O)C[C@@]2(C)C1CC[C@]2(O)C(=O)COC(=O)CCC(=O)NC(CC(=O)O)C(=O)O (some centres unmarked) | 11.4 |
| CN1CCN(S(=O)(=O)c2cccc(C(=O)N(Cc3nnc(-c4ccccc4Cl)o3)C3CC3)c2)CC1 | -4.44 |
| O=C(c1ccc2c(c1)CCN2S(=O)(=O)c1ccccc1)N1CCN(c2ccccc2)CC1 | 3.01 |
| C(#CCN1CCCCC1)COCc1ccccc1.Cl | -9.87 |
| CN(Cc1ccccc1)C(=O)c1cc(=O)[nH]c2ccccc12 | 8.3 |
| CCCCSCCCNC(=O)CCCN1C(=O)c2ccccc2Sc2ncccc21 | -27.6 |
| CC(C)(C)NC(=O)c1cccc(NC(=O)c2ccc3c(c2)C(=O)N(C(C)(C)C)C3=O)c1 | 2.05 |

| Compound | hERG current change (%, negative = inhibition) at 10uM [%] |
| --- | --- |
| COCCNc1oc(/C=C/c2ccccc2OC)nc1S(=O)(=O)c1ccccc1 | 4.27 |
| COc1cc(CNc2nc3ccccc3s2)cc(OC)c1OC | 3.33 |
| Cc1c(NC(=S)NC(=O)c2cc3ccccc3o2)cccc1C(=O)O | 17.3 |
| Cc1cccc(NC(=O)CC23CC4CC(C2)CC(n2nnc(C)n2)(C4)C3)c1 | -20.5 |
| COc1cc(C(=O)Oc2cc(C)[nH]c(=O)c2[N+](=O)[O-])cc(OC)c1OC | 1.42 |
| Cc1cc(OCCCN2CCCC2)ccc1Cl | -42.9 |
| CC(C)CC(=O)Nc1ccc2oc(-c3ccncc3)nc2c1 | 3.7 |
| CCN(CC(=O)NCc1ccc(Cl)cc1)C(=O)CCOc1ccccc1C | -71 |
| CC1(C)CC(=O)c2c(O)cc(OCC(=O)N3CCN(c4ccccc4)CC3)cc2O1 | -29.8 |
| Cn1cc(/C=C2\SC(=O)NC2=S)c2ccccc21 | -4.48 |
| CCN(CC)c1ccc(NC(=O)c2cccc(OC)c2)c(C)c1 | 2.11 |
| CC1CCN(S(=O)(=O)c2c[nH]c(=O)[nH]c2=O)CC1 | 6.09 |
| CC(=O)COC(=O)CCc1nc2ccccc2[nH]c1=O | -1.18 |
| CC(C)(C)c1ccc(/C=N/N2CCN(c3ccccn3)CC2)cc1 | 2.36 |
| COC(=O)CC1(C(=O)OC)Oc2ccc(Br)cc2C(=O)N1c1cc(Cl)cc(Cl)c1 (centres unmarked) | 6.94 |
| COCCNC(=O)COc1ccc(C)cc1C(=O)c1cc(C#N)c(=O)n(C2CC2)c1 | -21.9 |
| CN(C(=O)COC(=O)C1CCN(S(=O)(=O)c2cccs2)CC1)c1ccccc1 | -14.1 |
| O=c1[nH]cnc2c1sc1nc(C(F)F)cc(-c3ccccc3)c12 | 2.52 |
